Among all 420,000 compounds or so, about 540 (0.13%) were called active. Inconclusive means that the source gave no clear call. Such entries were picked first, then a sample of the others. Cut-off read from the data, not from the text of the source: active = activity change below about -50%; inconclusive = mostly about -30% to -49%; inactive = weaker than that.
Molecular target: Phosphatidylinositol 4-kinase type 2-alpha (Homo sapiens) (UniProt Q9BTU6)
Assay: qHTS for small molecular inhibitors of PI4K2A;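 note: -100% = wells without enzyme as full effect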
Conditions: purified PI4K2A, ADP-Glo luminescence, 1 h; at 76.9 µM, hits give low values
Outline: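 Compounds are screened against recombinant PI4K2A using PI as substrate and ATP, the latter dispensed at 300 microM. Reactions run one hour at ambient temperature before ADP-Glo detection; full inhibition defined by wells lacking enzyme.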

Sequence of UniProt Q9BTU6 (Q9BTU6 whole entry, looked up): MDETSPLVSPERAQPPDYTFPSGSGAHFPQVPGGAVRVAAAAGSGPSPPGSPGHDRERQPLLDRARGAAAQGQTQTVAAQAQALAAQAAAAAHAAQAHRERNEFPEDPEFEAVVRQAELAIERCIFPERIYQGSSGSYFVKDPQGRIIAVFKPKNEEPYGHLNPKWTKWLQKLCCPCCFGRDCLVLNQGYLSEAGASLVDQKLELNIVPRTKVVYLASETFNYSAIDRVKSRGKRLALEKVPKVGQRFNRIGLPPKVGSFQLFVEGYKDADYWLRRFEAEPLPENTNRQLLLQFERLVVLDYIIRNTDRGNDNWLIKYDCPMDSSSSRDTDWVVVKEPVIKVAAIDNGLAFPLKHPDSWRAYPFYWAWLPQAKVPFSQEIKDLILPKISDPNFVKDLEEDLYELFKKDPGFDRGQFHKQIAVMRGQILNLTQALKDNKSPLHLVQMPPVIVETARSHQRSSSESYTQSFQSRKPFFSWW

Row | SMILES | activity change, negative = inhibition
1 | O=C(O[C@@H]1OC2COC(=O)c3cc(O)c(O)c(O)c3-c3c(cc(O)c(O)c3O)C(=O)O[C@@H]([C@H]1O)[C@@H]2O)c1cc(O)c(O)c(O)c1 | inconclusive: -37%
2 | CCOc1ccc(NC(=O)CSC(N)=O)cc1 | inconclusive: -30.7%
3 | CCOC(=O)c1cccc(NC(=O)Cn2c(=O)c3cccn3c3ccccc32)c1 | inactive: -4.83%
4 | Cc1ccc(-c2c(C(=O)Nc3ccccc3C)c(C)[nH]c(=S)c2C#N)o1 | inconclusive: -47.2%
5 | CC(=O)c1ccc(N2CCN(S(=O)(=O)c3ccc4c(c3)C(Cl)(Cl)C(=O)N4)CC2)cc1 | inconclusive: -47.7%
6 | COc1ccc(C(=O)COC(=O)c2cccs2)cc1 | inconclusive: -35.8%
7 | C[C@H]1[C@@H](NC(=O)Cc2ccsc2)CC[C@@]23CCCN2C(=O)CCC[C@@H]13 | inactive: 3.84%
8 | COc1ccc(-c2cc(=O)c3c(C)cc(O)cc3o2)cc1 | inconclusive: -34.1%
9 | CCCNC(=O)C1CC(=O)N(c2ccc(OCc3ccccc3)cc2)C1 (stereo unspecified) | inconclusive: -31%
10 | O=C(Nc1ccc(N2CCCCC2)cc1)c1ccccn1 | active: -65.3%
11 | CCOC(=O)Cc1nnc(Nc2ccc(C)cc2)c2ccccc12 | active: -75.4%
12 | Cc1ccc(-n2nnc(-c3nccs3)n2)cc1 | inconclusive: -30.1%
13 | O=C(O)c1ccc2nc(-c3ccccc3)sc2c1 | active: -52.2%
14 | COc1ccc(CNC(=O)CCS(=O)(=O)c2ccc3c(c2)CCN3C(C)=O)cc1 | inactive: 1.47%
15 | O=C(Nc1c(-c2ccccc2)[nH][nH]c1=O)c1ccc2c(c1)OCO2 | inconclusive: -43.8%
16 | Cc1ccc(S(=O)(=O)C=CS(=O)(=O)c2ccc(C)cc2)cc1 | inactive: -2.61%
17 | CC(C)NC(=O)N[C@@H]1C[C@@H]2O[C@@H](CO)CC[C@@H]2O[C@@H]1CCc1ccc(-c2ccc(F)cc2)cc1 | inactive: -1.75%
18 | CC1N(C)c2cc(NC(=O)c3ccco3)ccc2C1(C)C (stereo unspecified) | inconclusive: -32.5%
19 | CN(C)c1ccc(NC(=O)C2C3C=CC(C3)C2C(=O)O)cc1 (stereo unspecified) | inconclusive: -36.7%
20 | Cc1ccc(N2C(=O)[C@@H]3[C@H](C2=O)C2c4ccccc4C=CN2[C@@H]3C(=O)c2ccco2)c(C)c1 (stereo partly specified) | inconclusive: -35.8%
21 | COC(=O)Cc1[nH]n(-c2nc3ccccc3s2)c(=O)c1C(C)=Nc1ccc(C)cc1 | inconclusive: -32%
22 | CCOc1ccccc1NC(=O)CSc1ccc(-c2ccco2)nn1 | inactive: -6.42%

Row | SMILES | activity change, negative = inhibition
23 | CCOC(=O)/C(C#N)=C/c1ccc(OC(=O)c2ccccn2)cc1 | inconclusive: -43.7%
24 | O=C(c1ccccc1)c1cc2ccc(O)cc2oc1=O | active: -86.6%
25 | O=C(COc1ccccc1/C=C\c1[nH]c(=O)[nH]c(=O)c1[N+](=O)[O-])Nc1ccccc1 | inconclusive: -37.7%
26 | O=C(Nc1ccc(-c2nc3cccnc3s2)cc1)C1CCCO1 (stereo unspecified) | active: -57.5%
27 | CSc1ccc(/C=C/c2nc3ccccc3n2S(=O)(=O)c2ccc(Br)cc2)cc1 | inconclusive: -48.1%
28 | COc1ccc(S(=O)(=O)N2CCC(N3CCN(c4ccccc4OC)CC3)CC2)cc1 | inactive: -0.369%
29 | CC(=O)c1ccc(NC(=O)CSc2nnc(-c3ccco3)c(-c3ccco3)n2)cc1 | inconclusive: -35.2%
30 | CCc1nnc(N/N=C/c2cc(C)c(C)cc2C)n1N | inconclusive: -30%
31 | O=C1C=C(NCCc2cc(Br)c(O)c(Br)c2)C(=O)c2ncccc21 | inconclusive: -47.7%
32 | c1ccc(-c2nnc(-c3ccccn3)nc2NC2CCCCC2)cc1 | inactive: -12.9%
33 | Cc1ccc(NC(=O)c2cc(S(=O)(=O)N3CCOCC3)cn2C)c(C)c1 | inconclusive: -36.1%
34 | CCOC(=O)c1c(C)oc2nc(C)nc(N3CCN(c4cccc(C(F)(F)F)c4)CC3)c12 | inactive: 1.76%
35 | CCO/C=C1/C(=O)N(Cc2ccccc2)C(=O)c2ccccc21 | inconclusive: -36.6%
36 | O=C1/C(=C/c2ccco2)CCc2ccccc21 | active: -53.6%
37 | Cc1[nH][nH]c(=O)c1C(c1ccc(-c2ccc(Cl)c(C(=O)O)c2)o1)c1c(C)[nH][nH]c1=O | active: -58.9%
38 | CC(C)Cn1cc(NC(=O)NCc2ccccc2Cl)c2ccccc2c1=O | inconclusive: -36.2%
39 | CC1=NN(c2ccc(C)cc2C)C(=O)C1C(c1ccccc1)C1C(=O)N(c2ccc(C)cc2C)N=C1C (stereo unspecified) | inconclusive: -37.8%
40 | CC1(C)CC(=O)C2=C(C1)OC(c1ccncc1)C(C#N)=C2N (stereo unspecified) | inactive: 2.68%
41 | Cc1cccc(/C(N)=N/OC(=O)c2ccoc2C)c1 | inconclusive: -40.6%
42 | CN(C)c1ccc(/C=C(\C#N)c2ccccn2)cc1 | inconclusive: -32.4%
43 | Cc1ccc(S(=O)(=O)NCc2ccc(C(=O)N3CCN(Cc4ccccc4)CC3)cc2)cc1 | inactive: -0.698%
44 | CCc1nnc(N/N=C/c2ccccc2F)n1N | inconclusive: -31.9%

Row | SMILES | activity change, negative = inhibition
45 | CC(C)(C)C(=O)N1CCC[C@H]1C(O)(c1ccccc1)c1ccccc1 | inconclusive: -47.5%
46 | c1c2c(cc3sc(N4CCCCC4)nc13)OCO2 | inconclusive: -31.7%
47 | O=C(O)C1=CC(=C(c2ccc(O)c(C(=O)O)c2)c2ccc(O)c(C(=O)O)c2)C=CC1=O | active: -85.7%
48 | O=C(O)c1ccc(-c2nc3ccccc3[nH]2)cc1 | inconclusive: -40.3%
49 | Cc1ccc2c(c1)C(=C(C#N)C#N)C(=O)N2CCN1CCOCC1 | inactive: 3.04%
50 | COc1ccc(-n2c(-c3ccccc3)cc3c2CCCC3=O)cc1 | inactive: -3.13%
51 | COC(=O)[C@@]12CCCCC=C1N(CCc1ccc(Cl)cc1)C(=O)[C@H]2CC(=O)NCC12CC3CC(CC(C3)C1)C2 | inactive: 3.61%
52 | O=C(O)c1ccc(N=Nc2c(O)[nH]c3ccccc23)cc1 | active: -62.1%
53 | CCOc1ccc2nc(NC(=O)c3ccccn3)sc2c1 | inconclusive: -49.2%
54 | CCC1=NN2C(=N)/C(=C\c3cccn3-c3ccc(Br)cc3)C(=O)N=C2S1 | inactive: 0.955%
55 | COc1cccc(C=Nc2ccc3c(c2)OCCO3)c1O | active: -62.9%
56 | O=C(Oc1ccc(-c2nc(-c3ccccn3)no2)cc1)c1ccccc1 | active: -59.2%
57 | CC(C)N1CC=C2C(C#N)=C(N)C(C#N)(C#N)C(c3ccccc3)C2C1 (stereo unspecified) | inactive: -0.326%
58 | CC(=O)Nc1ccc(OCc2ccc3c(c2)OCO3)cc1 | inconclusive: -30.4%
59 | C/C=C\C=C/C(=O)Nc1cccc(C2=NOC3(C2)C[C@@H](C(N)=O)N(C(=O)/C=C/C=C\C)C3)c1 (stereo partly specified) | inconclusive: -44.2%
60 | O=S(=O)(Nc1ccc(O)c2ccccc12)c1cccs1 | inconclusive: -47.4%
61 | CSc1ccc(/C=C/c2nc3ccccc3n2S(=O)(=O)c2ccc(F)c(C)c2)cc1 | inconclusive: -46.1%
62 | C[n+]1c(-c2ccccc2)cc2c(=Cc3ccccc3)c3ccccc3n21 | inconclusive: -40.5%
63 | CC1=C([N+](=O)[O-])C(c2cccc(Br)c2)C2=C(N1)c1ccccc1C2=O (stereo unspecified) | inactive: 0.917%
64 | O=C(O)c1ccc(N/N=C/c2ccc3nccnc3c2)cc1 | active: -54.8%
65 | COc1ccc(C(=O)OCCNC(=O)c2ccncc2)cc1OC | inconclusive: -32.3%
66 | O=C(COC(=O)c1ccc(S(=O)(=O)NCc2ccco2)cc1)Nc1ccc(Cl)cn1 | active: -52.5%

Row | SMILES | activity change, negative = inhibition
67 | CCOc1ccc(/C=C2\CCc3ccccc3C2=O)cc1 | inconclusive: -35.9%
68 | CN(C)S(=O)(=O)c1cccc(NC(=S)Nc2cccc3cnccc23)c1 | inconclusive: -40.8%
69 | Cc1ccc(/C=C/c2nc3ccccc3n2S(=O)(=O)c2ccc(Br)cc2)cc1 | active: -63.5%
70 | O=C(O)Cc1ccc2sc(-c3ccccc3)nc2c1 | active: -67.1%
71 | CC(C)(C)C(=O)NC(Nc1cccc2cccnc12)C(Cl)(Cl)Cl (stereo unspecified) | inconclusive: -38.5%
72 | COc1ccc(C(=O)Oc2ccc(C3NC(=O)c4c(sc5c4CCN(C)C5)N3)cc2OC)cc1 (stereo unspecified) | inconclusive: -32%
73 | Cc1c(O)cc2c(c1O)C(=O)CC(c1ccc(O)cc1)O2 (stereo unspecified) | inconclusive: -30.2%
74 | CC(C)NC(=O)C1(C#N)C=C1c1ccccc1 (stereo unspecified) | inactive: 3.52%
75 | CCSC1=C(C#N)C(c2ccccc2OC)CC(=O)N1 (stereo unspecified) | active: -65.2%
76 | Cc1ccsc1C(=O)Nc1ccc(OCc2ccccc2)cc1 | inconclusive: -35.8%
77 | O=C(Nc1cccc(NC(=O)c2ccc(Br)o2)n1)c1ccc(Br)o1 | inconclusive: -40.7%
78 | Cc1ccc(C(=O)O/N=C(\N)c2nonc2N)cc1 | inconclusive: -30.8%
79 | CCCC(=O)N(c1ccc2oc(=O)sc2c1)S(=O)(=O)c1ccccc1 | active: -50.5%
80 | CCN(C(=O)C(C)N1C(=O)/C(=C/c2ccco2)SC1=S)C1CCS(=O)(=O)C1 (stereo unspecified) | inconclusive: -37.2%
81 | CCC(=O)NC(c1cccs1)c1cc([N+](=O)[O-])c2cccnc2c1OC (stereo unspecified) | inconclusive: -48.2%
82 | Nc1ccc(N2CCN(C(=O)c3ccco3)CC2)cc1 | inconclusive: -31.3%
83 | COc1ccc(NC(=O)Nc2ccc(N(C)C)cc2)cc1 | inconclusive: -46.8%
84 | CCC(C)(c1nnnn1-c1c(C)cccc1C)N(N=O)c1ccccc1Cl (stereo unspecified) | inactive: 5.66%
85 | c1coc(-c2nnc(-c3ccco3)nn2)c1 | inconclusive: -30.2%
86 | CC1C=CC=CC=CC=CC=CC=CC=CC(OC2OC(C)C(O)C(N)C2O)CC2OC(O)(CC(O)CC(O)C(O)CCC(O)CC(O)CC(=O)OC(C)C(C)C1O)CC(O)C2C(=O)O (stereo unspecified) | inconclusive: -48.3%

Reference: PubChem BioAssay AID1346378 (National Center for Advancing Translational Sciences (NCATS), 2018)
